The record followed here is the antibiotic and cytotoxicity screens of Wong et al. (2023).

One experiment has as its system HSkMC. The experiment in a line: cytotoxicity call (relative viability < 0.9). Particulars: 10 µM.
For another experiment, the system named is HepG2. In words: cytotoxicity call (relative viability < 0.9). The settings on record: 10 µM.
In the next experiment the test system is S. aureus RN4220. The experiment in a line: growth inhibition call (relative growth <= 0.2). The settings on record: 50 µM.

The structures appear in SMILES notation. Some of the results follow.

For the compound `C[C@H](CO)N1C[C@H](C)[C@@H](CN(C)C(=O)Nc2ccccc2C(F)(F)F)OCc2cn(nn2)CCCC1=O`, the cytotoxicity call in the experiment with HSkMC and in the experiment on HepG2 was “inactive” in each case. For the same compound, the growth inhibition call in the experiment with S. aureus RN4220 is “inactive”.
As for `C[C@H]1CCCCO[C@@H](CN(C)C(=O)NC2CCCCC2)[C@@H](C)CN([C@@H](C)CO)C(=O)c2cc(NC(=O)Cc3ccccc3)ccc2O1`, the cytotoxicity call in the experiment on HSkMC and in the experiment on HepG2 was “inactive” throughout. Also, in the experiment on S. aureus RN4220, the growth inhibition call is “inactive”.
Consider `C[C@@H]1CN([C@@H](C)CO)C(=O)c2cc(NC(=O)CCCN(C)C)ccc2O[C@@H]1CN(C)Cc1ccc(Oc2ccccc2)cc1`, for which the cytotoxicity call in the experiment with HSkMC is “inactive”. In addition, in the experiment on HepG2, the cytotoxicity call was “active”. Moreover, the growth inhibition call with S. aureus RN4220 was “inactive”.
In the case of `C[C@@H]1CCCCO[C@@H](CN(C)S(=O)(=O)c2ccc(Cl)cc2)[C@@H](C)CN([C@H](C)CO)C(=O)c2cc(NC(=O)c3ccncc3)ccc2O1`, the cytotoxicity call with HSkMC and in the experiment on HepG2 was “inactive” throughout. Also, the growth inhibition call in the experiment with S. aureus RN4220 is “inactive”.
For `COCCNC(=O)[C@@H]1[C@@H](CO)[C@@H]2Cn3c(cccc3=O)[C@H]1N2S(=O)(=O)c1ccccc1C`, the cytotoxicity call in the experiment on HSkMC and in the experiment with HepG2 was “inactive” throughout. The growth inhibition call in the experiment on S. aureus RN4220 is “inactive”.
On to `C[C@H]1CN([C@@H](C)CO)C(=O)c2cc(-c3cccnc3)cnc2O[C@@H]1CN(C)Cc1ccc(Oc2ccccc2)cc1`, for which the cytotoxicity call in the experiment on HSkMC and with HepG2 was “inactive” throughout. In addition, the growth inhibition call in the experiment with S. aureus RN4220 was “inactive”.
As for `COC(=O)[C@@H](NC(=O)Cn1cc(C(=O)NO)nn1)c1ccccc1`, in the experiment with HSkMC, the cytotoxicity call was “inactive”. The cytotoxicity call in the experiment on HepG2 was “active”. In the experiment on S. aureus RN4220, the growth inhibition call was “inactive”.
For the compound `COc1cccc(S(=O)(=O)N2C[C@@H](O)COC[C@@H]3O[C@@H](CC(=O)NCCCN4CCOCC4)CC[C@H]32)c1`, the cytotoxicity call in the experiment on HSkMC and in the experiment on HepG2 was “inactive” throughout. Also, the growth inhibition call in the experiment on S. aureus RN4220 was “inactive”.
Take `CCNC(=O)[C@H]1[C@H](CO)[C@H]2Cn3c(ccc(-c4cccc(OC)c4)c3=O)[C@H]2N1S(C)(=O)=O`: the cytotoxicity call in the experiment on HSkMC and in the experiment with HepG2 was “inactive” in each case. Besides, in the experiment on S. aureus RN4220, the growth inhibition call was “inactive”.
Consider `COc1ccc(NC(=O)Nc2ccc3c(c2)C(=O)N([C@@H](C)CO)C[C@@H](C)[C@H](CN(C)S(=O)(=O)c2c(C)noc2C)OCCCC[C@@H](C)O3)cc1`, for which the cytotoxicity call in the experiment with HSkMC and in the experiment on HepG2 was “inactive” throughout. In the experiment on S. aureus RN4220, the growth inhibition call was “inactive”.
`C[C@@H]1CCCCO[C@@H](CN(C)S(=O)(=O)c2cccs2)[C@@H](C)CN([C@H](C)CO)C(=O)c2cc(NC(=O)Nc3ccc(C(F)(F)F)cc3)ccc2O1`: the cytotoxicity call in the experiment with HSkMC and in the experiment on HepG2 was “inactive” in each case. Moreover, in the experiment on S. aureus RN4220, the growth inhibition call is “inactive”.
With `COCC#Cc1cnc2c(c1)C(=O)N([C@H](C)CO)C[C@H](C)[C@H](CN(C)C(=O)c1cnccn1)O2`, the cytotoxicity call in the experiment on HSkMC is “inactive”. Also, the cytotoxicity call with HepG2 was “active”. The growth inhibition call with S. aureus RN4220 is “inactive”.
As to `C[C@H](CO)N1C[C@H](C)[C@@H](CN(C)C(=O)CCC(F)(F)F)OCCCC[C@H](C)Oc2ccc(NS(=O)(=O)c3ccccc3)cc2C1=O`, the cytotoxicity call with HSkMC and in the experiment with HepG2 was “inactive” in each case. Further, the growth inhibition call in the experiment with S. aureus RN4220 is “inactive”.
As for `C[C@@H]1CCCCO[C@H](CN(C)C(=O)Cc2ccccc2)[C@H](C)CN([C@H](C)CO)C(=O)c2cc(NC(=O)c3ccccc3)ccc2O1`, the cytotoxicity call with HSkMC and in the experiment with HepG2 was “inactive” each time. Moreover, in the experiment with S. aureus RN4220, the growth inhibition call was “inactive”.
`Cn1c(O)cc(=O)n(C)c1=O`: the cytotoxicity call with HSkMC and in the experiment with HepG2 was “inactive” each time. In addition, the growth inhibition call in the experiment with S. aureus RN4220 was “inactive”.
On to `C[C@@H]1CN([C@H](C)CO)C(=O)c2cc(NC(=O)Nc3ccccc3)ccc2O[C@@H](C)CCCCO[C@H]1CN(C)C(=O)Nc1ccc(C(F)(F)F)cc1`, for which the cytotoxicity call in the experiment on HSkMC and with HepG2 was “inactive” in each case. Moreover, the growth inhibition call in the experiment with S. aureus RN4220 was “inactive”.
Turning to `C[C@H](CO)N1C[C@H](C)[C@@H](CN(C)Cc2ccc(-c3ccccc3)cc2)Oc2c(NC(=O)Nc3ccc(F)cc3)cccc2C1=O`, the cytotoxicity call in the experiment with HSkMC and in the experiment with HepG2 was “inactive” throughout. In the experiment on S. aureus RN4220, the growth inhibition call was “inactive”.
Regarding `C[C@H](CO)N1C[C@H](C)[C@@H](CN(C)S(C)(=O)=O)Oc2ncc(C#CC3(O)CCCC3)cc2C1=O`, the cytotoxicity call in the experiment on HSkMC and with HepG2 was “inactive” throughout. For the same compound, the growth inhibition call with S. aureus RN4220 was “inactive”.
For the compound `O=c1ccc(=O)n(CCO)[nH]1`, the cytotoxicity call in the experiment with HSkMC and in the experiment with HepG2 was “inactive” each time. The growth inhibition call with S. aureus RN4220 was “inactive”.
`C[C@@H]1CCCCO[C@H](CN(C)S(=O)(=O)c2ccc(F)cc2)[C@@H](C)CN([C@H](C)CO)C(=O)c2cc(NC(=O)CCCCCC(=O)Nc3ccccc3N)ccc2O1`: the cytotoxicity call in the experiment on HSkMC and with HepG2 was “inactive” throughout. The growth inhibition call in the experiment on S. aureus RN4220 was “inactive”.
For the compound `COCCOc1ccc(N2CCN(CCn3ncc4c3nc(N)n3nc(-c5ccco5)nc43)CC2)cc1`, the cytotoxicity call in the experiment with HSkMC and with HepG2 was “inactive” throughout. Also, in the experiment with S. aureus RN4220, the growth inhibition call is “inactive”.
Regarding `C[C@H]1CN([C@@H](C)CO)C(=O)c2cc(NS(=O)(=O)c3ccc(Cl)cc3)ccc2O[C@@H]1CN(C)Cc1ccc(Oc2ccccc2)cc1`, the cytotoxicity call in the experiment on HSkMC and with HepG2 was “active” throughout. Moreover, the growth inhibition call with S. aureus RN4220 was “inactive”.
Regarding `C[C@@H]1CN([C@@H](C)CO)C(=O)c2cccc(NC(=O)c3cnccn3)c2O[C@H]1CN(C)S(=O)(=O)c1ccc(Cl)cc1`, the cytotoxicity call in the experiment with HSkMC and in the experiment with HepG2 was “inactive” throughout. Further, in the experiment with S. aureus RN4220, the growth inhibition call was “inactive”.
As to `C[C@H](CO)N1C[C@H](C)[C@@H](CN(C)S(=O)(=O)c2ccccc2)Oc2ncc(C#CC3(O)CCCC3)cc2C1=O`, the cytotoxicity call in the experiment on HSkMC (human skeletal muscle cells) and in the experiment on HepG2 was “inactive” in each case. Further, the growth inhibition call in the experiment on S. aureus RN4220 was “inactive”.
`CCCCCCCCCCCCCCCCCC(=O)OC[C@@H](COP(=O)(O)OCC[N+](C)(C)C)OC(=O)CCCCCCCCCCCCCCCCC`: the cytotoxicity call in the experiment with HSkMC and with HepG2 was “inactive” throughout. The growth inhibition call in the experiment on S. aureus RN4220 was “inactive”.
